# Source: PubChem BioAssay AID1347044 (National Center for Advancing Translational Sciences (NCATS), 2019)
# The list shows a part of the results. Further columns of the screen follow, without active or inactive calls. The list favours compounds with an active or inconclusive main result. Potencies come from curve fits of mixed quality, noted in brackets.
# Assay: Natriuretic polypeptide receptor (hNpr1) antagonism - Confirmation; note: nearly all actives have a fitted effect of over 70% in size
# Settings: HEK293 hNpr1 cGMP GloSensor luminescence, ANP-stimulated; measured here: HEK-hNpr1 cytotoxicity, CellTiter-Glo
# Outline: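 Compound (30 min, room temperature) preceded stimulation with hNppA peptide at 0.1 nM final for 20 min. Cells were HEK293 carrying hNpr1 plus GloSensor pGS-40F cGMP biosensor, pre-equilibrated 2 h with 2% substrate; cGMP was followed as luminescence pre- and post-agonist.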
# Tags give direction and shape of the fitted curve.
row,SMILES,CC50
1,Cc1cc(=O)n(CC(=O)Nc2ccc(Br)cc2F)c(N(C)Cc2ccccc2)n1,"17.2 µM [falling, partial curve]"
2,O=C(c1ccccc1F)N1CCC(n2cc(-c3nc(-c4ccccc4)no3)nn2)C1 (centres undefined),"24.3 µM [falling, partial curve]"
3,CCc1ccc(C(=O)N2CCC(Cc3nc(C(C)C)no3)CC2)cc1,"27.3 µM [falling, partial curve, poor fit]"
4,COc1ccc(NC(=O)Cn2c(N(C)Cc3ccccc3)nc(C)cc2=O)cc1,"17.2 µM [falling, partial curve]"
5,COc1ccc(CNC(=O)N2CCC(Oc3ccc(-c4noc(C5CC5)n4)cc3)C2)cc1 (centres undefined),"43.2 µM [falling, single point]"
6,Cc1ccc(-c2noc(CCCC(=O)N3CCC(CCOc4ccccc4F)C3)n2)cc1 (centres undefined),"17.2 µM [falling, partial curve]"
7,COc1cccc(-c2noc(CC3CCN(C(=O)CCc4ccccc4)CC3)n2)c1,"30.6 µM [falling, single point]"
8,COc1ccc(CN2CCOc3nc(-c4cccc(C(F)(F)F)c4)ncc3C2=O)cc1,"39.6 µM [falling, partial curve]"
9,Cc1cc(CNC(=O)c2ccc(-c3ccccc3Cl)o2)n(C)n1,"15.3 µM [falling, partial curve]"
10,Cc1cc(NC(=O)C(C)(C)Oc2nn(CCOc3ccccc3)c3ccccc23)n(C)n1,"35.3 µM [falling, partial curve]"
11,CC1(CCCCc2ccccc2)COc2ccc(C(=O)NC3CC3)cc2N1 (centres undefined),"35.3 µM [falling, partial curve]"
12,CCC1Oc2ccc(NC(=O)c3ccccc3OC(C)=O)cc2CN(Cc2ccccc2F)C1=O (centres undefined),"30.6 µM [falling, single point]"
13,COc1ccc(C(=O)N2CCN(c3cc(-c4cccs4)[nH]n3)CC2)c(C)c1,"19.3 µM [falling, partial curve]"
14,COc1ccc(-c2cn3c(n2)CO[C@@H](CNS(=O)(=O)c2ccc(C)cc2)C3)cc1,"35.3 µM [falling, partial curve]"
15,Cc1ccccc1CN1Cc2nc(NCc3cccc(F)c3)ccc2OCC1=O,"35.3 µM [falling, partial curve]"
16,COc1ccc(OC)c(NC(=O)Cn2c(N3CCC(C)CC3)nc(C)cc2=O)c1,"19.3 µM [falling, partial curve]"
17,COc1cccc(C(=O)N2CCCN(c3cc(-c4ccc(C)c(C)c4)[nH]n3)CC2)c1OC,"21.7 µM [falling, partial curve]"
18,O=C(c1ccccc1)N1CCNc2cnc(Nc3cccc(F)c3)nc2C1,"31.4 µM [falling, partial curve]"
19,Cc1ccccc1CC(=O)N1CCN(C(=O)c2nnn3c2COC(c2ccc(Cl)cc2)C3)CC1 (centres undefined),"19.3 µM [falling, partial curve]"
20,c1cncc(COc2cc3c(cn2)NCCN(Cc2ccc4[nH]ccc4c2)C3)c1,"31.4 µM [falling, partial curve]"

row,SMILES,CC50
1,COc1ccc(C(=O)N2CCN(C(=O)c3nnn4c3COC(c3ccc(Cl)cc3)C4)CC2)cc1F (centres undefined),"24.3 µM [falling, partial curve]"
2,O=C(Nc1ccc(Oc2ccccc2)cc1)O[C@@H]1CO[C@H]2[C@@H]1OC[C@@H]2NS(=O)(=O)c1ccc(Cl)cc1,"17.2 µM [falling, partial curve]"
3,Cc1nn(C)c(C)c1C(C)NC(=O)c1ccc(CC2CCN(C(=O)C3CC3)CC2)cc1 (centres undefined),"13.7 µM [falling, partial curve]"
4,COCc1cc(NCCSCc2ccccc2C)ncn1,"19.3 µM [falling, partial curve]"
5,CC1(C)[C@H](Cc2cc(COC(=O)c3cccs3)on2)C[C@@H]1NC(=O)c1cccs1,"31.4 µM [falling, partial curve]"
6,Cc1nn2c(c1-c1ccccc1-c1ccccc1)N(CCC(C)C)CCC2,"44.4 µM [falling, single point]"
7,NC(=O)Cc1c[nH]c2ncc(-c3ccccc3C(F)(F)F)cc12,"28 µM [falling, partial curve]"
8,CN1C[C@@H](NC(=O)Nc2cccc(C#N)c2)C[C@H]1c1nc(-c2ccc(Cl)cc2)no1,"22.2 µM [falling, partial curve]"
9,COc1ccc(C2Cn3nnc(C(=O)N4CCN(C(=O)c5ccc(C)cc5C)CC4)c3CO2)cc1 (centres undefined),"21.7 µM [falling, partial curve]"
10,CCc1cnc(N2CCC(COc3ccc4c(cnn4CC[S+](C)(=O)[O-])c3)CC2)nc1,"10.9 µM [falling, partial curve]"
11,CC(CCc1ccco1)NC(=O)CN1CCCc2nc(-c3ccccc3)ncc2C1=O (centres undefined),"19.3 µM [falling, partial curve]"
12,COCCN1CCCC2(CCN(c3nc(C)nc4sccc34)C2)C1=O (centres undefined),"17.2 µM [falling, partial curve]"
13,COC(=O)c1ccc(NC(=O)N2CC(Oc3cccc(-c4nc(C)no4)c3)C2)cc1,"34.3 µM [falling, single point]"
14,O=C(c1cccc(F)c1)N1CCN(c2cc(-c3ccc(Cl)cc3)[nH]n2)CC1,"21.7 µM [falling, partial curve, poor fit]"
15,COc1cccc(-c2ccc(CN3C4CCC3CN(C(=O)c3ccncc3)C4)cc2)c1,"12.2 µM [falling, partial curve]"
16,CN(C)c1cccc(-c2cnc3[nH]cc(CC(=O)N4CCOCC4)c3c2)c1,"31.4 µM [falling, partial curve]"
17,CCOc1ccc(CC(=O)N2CCC(Cc3nc(-c4ccc(OC)cc4)no3)CC2)cc1OCC,"21.7 µM [falling, partial curve]"
18,COc1nccc(N2CCC(CC(=O)N3CCCN(c4ncccn4)CC3)CC2)n1,"21.7 µM [falling, partial curve]"
19,O=C(OCc1ccccc1)N1CCC2(CC1)C(=O)NN=C2c1cccnc1,"19.3 µM [falling, partial curve]"
